Conditions: 0.001% w/v in methanol, 1 cm path length

absorption maximum (band at 316 nm): non-existent
Structure (SMILES): Cc1ccc(C(=O)c2ccccc2)cc1 [Speedcure MBP, 4-methylbenzophenone]
